Among all 48,000 compounds or so, about 120 (0.25%) were called active. Roughly 4% stayed inconclusive and do not appear here. Calls follow the shape of the dose curve; as a rule, active = well fitted activation curve with a large enough effect; inconclusive = small, poorly fitted or top-dose-only effect, or another doubt; inactive = no such curve, though single readings can be large or run the other way. The list shows a part of the results.
experiment: Primary qHTS for Identification of Small Molecule Activators of Huntingtin-Antisense Promoter Activity; conditions: HEK293 HTT-AS promoter firefly luciferase reporter, 24 h; series mostly up to 57.5 µM; activity change, positive = activation: at the top concentration; also: nearly all actives have a fitted effect of over 55% in size
How it was run: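 Firefly luciferase readout (Dual-Glo, 10 min RT) after 24 h, 37 °C compound exposure (final up to 57.5 uM) of HEK293 reporter cells cultured 24 h beforehand; PTC124 at 50 uM final as control inhibitor; activity scaled vehicle 0%, zero RLU -100%.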

Activity change, positive = activation, inactive:
C=Cc1c(C)c2cc3nc(cc4[nH]c(cc5nc(cc1[nH]2)C(C)=C5CCC(=O)O)c(CCC(=O)OC)c4C)[C@@]1(C)C3=CC=C(C(=O)OC)[C@H]1C(=O)OC -35.4%
CCN(c1ccccc1)S(=O)(=O)c1nnc(NC(=O)COc2ccccc2F)s1 -27.8%
NC[C@H]1O[C@H](O[C@H]2[C@H](O[C@@H]3O[C@H](CO)[C@@H](O)[C@H]3O)C(O)[C@H](N)C[C@@H]2N)[C@H](N)[C@@H](O)[C@@H]1O (stereo partly drawn) -3.51% [at 11.5 µM, percent change from vehicle, -100% = no light]
COc1ccc(CNC(=O)C(=O)NCC(c2cccnc2)N2CCN(c3ccccc3F)CC2)cc1 (stereo not drawn) -47.9%
COc1ccc(-c2[nH]ncc2C(=O)NCc2ccccc2OC)cc1 -10.2%
Cc1ccc(NC(=O)CN(C)S(=O)(=O)c2cccc3nsnc23)c(C)c1 -0.623%
CC(=O)Nc1ccc(S(=O)(=O)Nc2ccc3c(c2)n(C)c(=O)n3C)c(C)c1 -14.1%
Cc1cc(C)n(-c2nc3cc(Cl)c(Cl)cc3nc2Nc2c(C)cccc2C)n1 -7.68%
Cc1cccc(CNC(=O)c2ccc(Cn3c(SCc4ccccc4)nc4cccnc43)cc2)c1 3.45%
CCc1ccc2oc(C(=O)Nc3nc(-c4ccccc4)ns3)c(C)c2c1 0.514%
Cc1ccc(OC(C)C(=O)NCC2(N3CCOCC3)CCCCC2)cc1C (stereo not drawn) -16.6%
Cc1c(C(=O)N(C)C)sc2c1c(=O)n(-c1ccc(F)cc1)c(=O)n2CC(=O)N(C)c1ccccc1 -12.8%
COc1ccccc1CNC(=O)CCC1N=C2c3ccccc3N=C(SCC(=O)NCCc3ccccc3)N2C1=O (stereo not drawn) 0%
COc1ccc(Cl)cc1NC(=O)c1nc(S(C)(=O)=O)ncc1N(Cc1ccc(C)cc1)Cc1ccco1 -15.3%
Cc1cc2oc(C(=O)Nc3ccc(S(=O)(=O)Nc4onc(C)c4C)cc3)cc(=O)c2cc1C -1.36%
Cc1ccc(C)c(NC(=O)Cn2c(=O)oc3cc(S(=O)(=O)NCc4ccccc4)ccc32)c1 -32.9%
CCOc1ccc(-n2c(SC(C)C(=O)OC)nc3c([nH]c4ccccc43)c2=O)cc1 (stereo not drawn) -19.6%
NC[C@H](O)c1ccc(O)c(O)c1
CCN(CC)CCNC(=O)c1ccc(N)cc1 -0.0711%
O=C(CSc1nc(=O)[nH]c2c1CCCC2)NCc1ccc(Cl)cc1 -2.54%
CCOC(=O)c1c(NC(=O)/C=C/c2ccc(OC)cc2)sc2c1CCC(C)C2 (stereo not drawn) -22%
Cc1ccccc1C(=O)Nc1sc2c(c1C(=O)N1CCC(C)CC1)CCCC2 -12%
CCN(CCCNC(=O)c1cc2c(=O)[nH]c3ccc(C)cc3c2s1)Cc1ccccc1 -25.8%
Cc1cccc(Nc2nc3ccccc3n3c(N)nnc23)c1 0.629%
Cc1cc2n(n1)CCCN2C(=O)Nc1cccc(C)c1C -13.3%
OC1(c2ccccc2)CCNCC1 -3.02%
Cc1ccc(Cn2c(=O)c3cccnc3n(Cc3ccc(F)cc3)c2=O)cc1 -15.9%
COc1cccc(N2CCN(c3ncc4c(n3)CCN(Cc3ccc(Br)cc3)C4)CC2)c1 -85.4%
COc1ccccc1/C=C/c1nc(C#N)c(NC(C)c2ccccc2)o1 (stereo not drawn) -18.2%
CC(=O)c1ccc(N2CCN(C(=O)Cn3ncc4c3-c3ccccc3OC4)CC2)cc1 -34.1%
CCOc1ccc(NC(=O)c2cnn3c(C(F)F)cc(-c4ccc(C)cc4)nc23)cc1 -15.4%
Cc1c(Cl)cccc1NC(=O)CN1C(=O)CSc2ccc(S(=O)(=O)N3CCCC3)cc21 -35.8%
CC(=O)c1cc(-c2ccc(F)cc2)n(CCC(=O)NCc2ccc(C)cc2)c1C -22.8%
CCc1ccc(Sc2cc(C(=O)NCCCN3CCCC(C)C3)c3ccccc3n2)cc1 (stereo not drawn) -20.9%
CC(C)(C)C(=O)OCOC(=O)C1N2C(=O)CC2S(=O)(=O)C1(C)C (stereo not drawn) -2.42%
Cc1ccc(NC(=O)CN2CCN(C3CCCCC3)C(=O)C2=O)cc1 -5.61%
Cc1ccccc1CCNCc1c(C(=O)O)c(C)n(Cc2c(F)cccc2Cl)c1C -9.34%
O=c1cc(COc2cccc(C(F)(F)F)c2)nc2sc3c(n12)CCCC3 -11.6%
Cc1ccc(-n2ncc(C(=O)N3CCN(C4CCCCC4)CC3)c2C2CCN(C(=O)OC(C)(C)C)CC2)cc1 -5.49%
CCOC(=O)c1c(NC(=O)c2ccc(S(=O)(=O)N(C)C)cc2)sc2c1CCN(C)C2 -17.8%
CCCCCCNc1ncnc2c1sc1nc(N3CCOCC3)c3c(c12)CCCC3 -5.29%
COc1ccc(NC(=O)Cn2c(=O)n(CC3CCCO3)c(=O)c3ccccc32)cc1 (stereo not drawn) -14%
CCCCSCCCNC(=O)c1cc(-c2cccnc2)nc2ccc(S(=O)(=O)N3CCC(C)CC3)cc12 -4.08%
Cc1oc2ccc(O)c(CN3CCN(Cc4ccccc4)CC3)c2c1C(=O)Nc1cccc(Cl)c1C -2.86%
CCCN(C(=O)c1nn(-c2ccc(C)cc2)c(=O)c2c1c1ccccc1n2C)c1ccccc1C -4.36%
O=C(Nc1ccc(Oc2ccccc2)cc1)C1CCN(S(=O)(=O)c2ccccc2)CC1 -24.7%
Cc1cccc(NS(=O)(=O)c2nnc(NC(=O)C3CCCCC3)s2)c1 -25.8%
COc1cc2[nH]c(=O)n(Cc3ccc(C(=O)N4CCN(c5cccc(C)c5C)CC4)cc3)c(=O)c2cc1OC -17.2%
COc1ccc(CNC(=O)c2cc(Nc3ccc(OC)cc3OC)nc3ccccc23)cc1 6.78%
CCOC(=O)c1ccc(NC(=O)c2ccc3c(c2)CCN3S(=O)(=O)c2ccc(Cl)cc2)cc1 -7.46%
COc1ccc(CCNC(=O)Cn2nnc(-c3cccc(C(F)(F)F)c3)n2)cc1OC -6.95%
CC(CNC(=O)c1ccc(Cn2c(SCc3ccccc3)nc3cccnc32)cc1)c1ccccc1 (stereo not drawn) -3.47%
COc1ccc2oc(=O)cc(CN3CCN(C(=O)c4ccccc4)CC3)c2c1 -10.5%
O=C(Nc1ccc(O)c(-c2nc3ccccc3o2)c1)c1cccs1 6.9%
Cc1ccc(C)c(CN2C(=O)c3ccccc3Sc3ccc(C(=O)NCCCOC(C)C)cc32)c1 -37.5%
O=C(CSc1n[nH]c(-c2ccccc2Cl)n1)N1CCN(c2ccc(F)cc2)CC1 -21.4%
CCOC(=O)c1ccc(N2C(=O)c3n[nH]c(C)c3C2c2ccc(C(C)C)cc2)cc1 (stereo not drawn) -4.3%
CC(C)c1nn2c(=O)cc(COC(=O)c3ccc(NC(=O)c4ccccc4Cl)cc3)nc2s1 -4.12%
CC(C)NC(=O)c1nn(C)c2c1CS(=O)(=O)c1ccccc1-2 5.16%
COC(=O)c1cc(Cl)ccc1NC(=O)Cn1c(C)cc(C)c(C#N)c1=O -8.37%
Clc1ccc(CN2CCc3nc(Nc4ccc5c(c4)OCCO5)ncc3C2)cc1 -7.19%
CCOc1ccccc1CN(CCc1ccc2c(c1)OCO2)Cc1cc(OC)c(OC)cc1OC -13.9%
Cc1ccccc1C(=O)NCc1ccc2c(c1)CCN2C(=O)c1ccccc1 -34.5%
CCn1c(=O)c2sccc2n2c(CCCC(=O)N3CCN(c4ccccc4OC)CC3)nnc12 -4.96%
CCCCCCOc1ccccc1C(N)=O -5.88%
O=C(c1ccc(F)cc1)N1c2ncnn2C2(CCCCC2)[C@@H]2CCCC[C@@H]21 -29%
COc1ccc(CNC(=O)C(=O)NCC(c2cccs2)S(=O)(=O)c2ccc(C)cc2)cc1 (stereo not drawn) -34%
CCn1c(SCC(=O)Nc2cccc(Cl)c2)nnc1-c1nonc1NC(C)=O -18.1%
Cc1ccc(-c2nsc(NC(=O)c3oc4cc(C)c(Cl)cc4c3C)n2)cc1 2.29%
CCCCOc1ccc(C(=O)Nc2ccc3c(c2)N(C(C)=O)CCC3)cc1 -87.9%
Cn1cccc1-c1cc2n(n1)CCC(=O)N2CC(=O)Nc1ccc(F)cc1Cl -12.5%
CC(C)NC[C@@H](C(=O)N1CCN(c2ncnc3c2[C@H](C)C[C@H]3O)CC1)c1ccc(Cl)cc1 -39.8%
Cc1ccc(S(=O)(=O)N2CCCc3cc(NC(=O)c4cccc(Cl)c4)ccc32)cc1 0%
CCOc1cc(CNc2ccc(O)cc2)cc(Cl)c1OCc1ccccc1 -21.4%
Cc1c(NC(=O)Cc2ccccc2)cccc1-c1nc2cccnc2s1 -2.19%
CCOC(=O)c1c(C)[nH]c(C)c1S(=O)(=O)N1CCC(C(=O)NCc2ccc(OC)cc2)CC1 2.21%
Cn1nc(-c2ccccc2F)c2cc(C(=O)N3CCN(c4ccccc4F)CC3)sc21 -52.8%
CCOc1ccc(NC(=O)c2cc3nc(-c4ccc(OC)cc4)cc(C(F)(F)F)n3n2)cc1 4.08%
COC(=O)c1ccc2c(=O)n(CCCCCC(=O)N3CCN(c4cccc(C)c4C)CC3)c(=O)[nH]c2c1 -41.2%
COCCCNc1nc2c(-c3cccc(Br)c3)nnn2c2ccccc12 15.3%
CCS(=O)(=O)N1CCc2cc(C(=O)NCc3ccc(C)cc3)ccc21 -15.6%
O=C(CSc1nc2c([nH]c3ccccc32)c(=O)n1-c1ccc(F)cc1)Nc1ccc2c(c1)OCCO2 -31.2%
Cc1cccc(-c2cc(-c3ccccc3)nc(SCC(=O)Nc3ccccc3)c2C#N)c1 16.3%
Cc1ccc(S(=O)(=O)N(CC(O)Cn2c3ccccc3c3ccccc32)c2cccc(C(=O)NCCO)c2)cc1 (stereo not drawn) -42.6%
CCC(Cn1nnc2ccccc2c1=O)NC(=O)Nc1ccccc1Cl (stereo not drawn) -10%
CCC(Sc1nc2ncccc2[nH]1)C(=O)Nc1ccccc1F (stereo not drawn) -15.4%
CC(C)(C)c1cc(C(C)(C)C)c(NC(=O)c2c[nH]c3ccccc3c2=O)cc1O -8.24%
COc1ccc2c(CNCc3cccs3)c(C(=O)O)n(Cc3ccccc3C)c2c1 -11.4%
O=C(OCC1CCCO1)c1ccc2c(c1)N(Cc1ccc(F)cc1)C(=O)c1ccccc1S2(=O)=O (stereo not drawn) -18.1%
COc1cc(OC)c(N(C)C(=O)c2cc3c(s2)-c2ccccc2OC3)cc1Cl -23.8%
Cc1ccc(Cl)cc1NC(=O)N1CCC(CN2CCc3ccccc3C2)CC1 -15.3%
CCC(=O)NCc1nc2ccccc2n1Cc1ccccc1 -6.23%
Cc1ccc(Sc2ccc(N3CCC(C(=O)Nc4ccc(Cl)cc4)CC3)nn2)cc1 -14.3%

From PubChem BioAssay AID1508624 (National Center for Advancing Translational Sciences (NCATS), 2021)
